This is one part of the list. Sequences were assembled here from the parent chain. Inactive controls read about 0.05.
B1: TEV protease; numbered along this chain (parent)
chain: MGESLFKGPRDYNPISSSICHLTNESDGHTTSLYGIGFGPFIITNKHLFRRNNGTLVVQSLHGVFKVKDTTTLQQHLVDGRDMIIIRMPKDFPPFPQKLKFREPQREERICLVTTNFQTKSMSSMVSDTSCTFPSGDGIFWKHWIQTKDGQCGSPLVSTRDGFIVGIHSASNFTNTNNYFTSVPKNFMELLTNQEAQQWVSGWRLNADSVLWGGHKVFMVKPEEPFQPVKEATQL

Variants of: B1
Assay: raw area under fraction-flipped curve 0-4 h after induction (AUC4h, not background-subtracted), DNA-recorder readout of cleavage of the substrate (dimensionless); higher = more cleavage of the substrate by the protease variant
Settings: temperature: 34 °C; time window: 0-4 h after rhamnose induction
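Further: Bxb1 expression induced with 0.2% (w/v) L-rhamnose at OD600 near 0.5, cultures sampled hourly, flipped fraction per protease–substrate barcode pair counted by paired-end Illumina sequencing.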

Row | Variant | area with substrate CNLYFQS | area with substrate DNLYFQS | area with substrate FNLYFQS | area with substrate GNLYFQS | area with substrate HNLYFQS | area with substrate INLYFQS | area with substrate KNLYFQS | area with substrate MNLYFQS | area with substrate NNLYFQS | area with substrate PNLYFQS | area with substrate SNLYFQS | area with substrate TNLYFQS | area with substrate VNLYFQS | area with substrate WNLYFQS | area with substrate YNLYFQS | area with substrate LNLYFQS | area with substrate QNLYFQS | area with substrate RNLYFQS
1 | S158N | 0.059 | 0.075 | 0.055 | 0.043 | 0.0708 | 0.0617 | 0.041 | 0.0574 | 0.0638 | 0.0559 | 0.0315 | 0.067 | 0.0488 | 0.0516 | 0.0505 | – | – | –
2 | S158Y | 0.0462 | 0.0474 | 0.0399 | – | 0.0535 | – | – | 0.0433 | – | 0.0725 | 0.0537 | 0.0647 | 0.0417 | 0.052 | – | 0.0477 | – | –
3 | T159I | 0.0827 | 0.0864 | – | – | 0.0651 | – | – | – | – | 0.0768 | 0.0591 | 0.0569 | 0.0768 | 0.0713 | – | – | – | –
4 | R160W | 0.0764 | 0.101 | – | – | – | – | – | – | – | – | – | 0.0723 | – | 0.0656 | 0.0569 | – | – | –
5 | G162D | 0.0675 | 0.0838 | 0.0663 | 0.0654 | – | – | – | 0.0617 | 0.0491 | 0.0653 | – | 0.0617 | 0.0721 | 0.063 | – | – | – | –
6 | G162F | 0.0715 | 0.074 | 0.0593 | 0.0569 | 0.0549 | 0.0548 | 0.047 | 0.0574 | 0.0639 | 0.0654 | 0.0682 | 0.0639 | 0.0575 | 0.0503 | 0.0566 | 0.0546 | 0.0748 | –
7 | G162L | 0.0421 | 0.081 | 0.0644 | 0.067 | 0.0465 | 0.0553 | – | 0.0507 | 0.0584 | 0.0644 | – | 0.0616 | – | 0.0566 | 0.0551 | 0.053 | 0.0687 | –
8 | G162R | 0.0577 | 0.0403 | – | 0.0627 | 0.0598 | 0.0565 | 0.0294 | 0.07 | – | 0.0783 | 0.0564 | – | 0.0583 | 0.0642 | 0.0755 | 0.0788 | – | 0.0744
9 | F163I | 0.049 | 0.0676 | – | 0.0495 | 0.0513 | – | 0.0754 | – | 0.0548 | – | – | 0.0603 | – | 0.0585 | – | – | – | –
10 | I164G | 0.0576 | 0.0674 | 0.048 | 0.0556 | 0.0543 | – | 0.0529 | 0.0487 | – | – | 0.0641 | 0.0537 | – | 0.053 | 0.0447 | 0.0542 | – | –
11 | I164Q | 0.0642 | 0.0652 | – | 0.0538 | 0.0578 | 0.0265 | 0.0622 | 0.0545 | 0.0647 | – | 0.068 | 0.059 | – | 0.0416 | 0.047 | 0.0632 | 0.0683 | –
12 | V165P | 0.0384 | 0.0477 | – | 0.0514 | 0.0565 | – | 0.0513 | – | 0.0632 | 0.0534 | – | 0.0669 | – | 0.0548 | 0.0534 | 0.057 | – | 0.0502
13 | G166F | 0.0547 | 0.055 | 0.0688 | – | – | 0.0519 | – | 0.0458 | 0.0313 | 0.0338 | 0.0578 | 0.0516 | – | 0.0512 | 0.0569 | 0.0488 | – | –
14 | G166W | 0.0478 | 0.0551 | – | – | 0.0443 | 0.0515 | – | 0.0462 | 0.041 | 0.0372 | 0.0615 | 0.0509 | 0.0545 | – | – | – | – | –

From the supplement of paper PMC12217912
